Our source for the Ki values is patent publication US7592316B2, “Peptides as NS3-serine protease inhibitors of hepatitis C virus” (Schering Corporation, priority 2000, dated 2009).

*1 amine or outer side, *2 acyl side, *3 side chain or, on linkers, in order; H or OH if unused. Where a SMILES comes first, the peptide text is derived from it. [ ]: non-standard residue; d: D form. The star is where a group is joined. ξ: configuration not given here. Pro(3R,4S-CMe2) = CC1(C)[C@@H]2[C@@H](C(=O)O)NC[C@@H]21; Pro(3S,4R-CMe2) = CC1(C)[C@H]2[C@@H](C(=O)O)NC[C@H]21; ξLeu(ψCOCO) = CC(C)CC(N[*:1])C(=O)C(=O)[*:2]; Gly(2-thienyl) = N[C@H](C(=O)O)c1cccs1; Pro(4,4-Me2) = CC1(C)CN[C@H](C(=O)O)C1; X12 = CCC[C@H](N[*:1])C(=O)C(=O)[*:2]; Isobutyloxycarbonyl = CC(C)COC(=O)*; Cyclohexylacetyl = O=C(CC1CCCCC1)*; X6 = C=CCCC(N[*:1])C(=O)C(=O)[*:2]; Igl = N[C@H](C(=O)O)C1Cc2ccccc2C1; X4 = CCCCC(N[*:1])C(=O)C(=O)[*:2]; Hyp = O=C(O)[C@@H]1C[C@@H](O)CN1; X2 = CCCC(N[*:1])C(=O)C(=O)[*:2]; Chg = N[C@H](C(=O)O)C1CCCCC1; Phg = N[C@H](C(=O)O)c1ccccc1; Tle = CC(C)(C)[C@H](N)C(=O)O; ξChg = NC(C(=O)O)C1CCCCC1; ξPhg = NC(C(=O)O)c1ccccc1; Boc = CC(C)(C)OC(=O)*; ξPip = O=C(O)C1CCCCN1; Bn = c1ccc(C*)cc1

By Ki is commonly meant the dissociation constant of the complex between target and ligand, obtained from inhibition or displacement.

In one assay the target is HCV NS3/NS4A protease (strain 1a) (Hepatitis C virus genotype 1a, UniProt P27958). Nature of the assay: biochemical. The following applies: Compounds prepared by Solid Phase Synthesis, Table 3; read-out: Ki* CLASS.
For the molecule `CCCC(NC(=O)[C@@H]1C[C@@H](OCc2ccccc2)CN1C(=O)C(NC(=O)CC1CCCCC1)C1CCCCC1)C(=O)C(=O)NCC(=O)NC(C(N)=O)c1ccccc1` (stereo partly drawn) [drawing 335] (Cyclohexylacetyl-[ξChg][Hyp](Bn)[X2]G[ξPhg]-NH2), the Ki fell in the range of 101 to 1000 nM.

Still in this assay, the particulars now being: HCV protease continuous assay results, Table 1; read-out: Ki* Range.
As for `CCCCC(NC(=O)[C@@H]1[C@@H]2[C@H](CN1C(=O)[C@@H](NC(=O)OC(C)(C)C)C(C)(C)C)C2(C)C)C(=O)C(=O)NOC` (stereo partly drawn) [Example 360], the Ki was in the range of 101 to 1000 nM.

For `C=CCCNC(=O)C(=O)C(CCCC)NC(=O)[C@@H]1[C@@H]2[C@H](CN1C(=O)[C@@H](NC(=O)OC(C)(C)C)C(C)(C)C)C2(C)C` (stereo partly drawn) [Example 361], the Ki was 101 to 1000 nM.

For the molecule `CCCCC(NC(=O)[C@@H]1[C@@H]2[C@H](CN1C(=O)[C@@H](NC(=O)OC(C)(C)C)C(C)(C)C)C2(C)C)C(=O)C(=O)NCCOC` (stereo partly drawn) [Example 362], the Ki is greater than 1000 nM.

Still in this assay, the particulars now being: Table 4; HCV NS3/NS4A protease, spectrophotometric assay, 30° C., pH 6.5; read-out: Ki* Range.
`CCC[C@H](NC(=O)C1CCCCN1C(=O)[C@@H](NC(=O)OCC(C)C)C1CCCCC1)C(=O)C(=O)NCC(=O)N[C@H](C(=O)N(C)C)c1ccccc1` (stereo partly drawn) [iBoc-Chg-Pip-nV- (CO)-G-G(Ph)- N(Me)2] (Isobutyloxycarbonyl-[Chg][ξPip][X12]G[Phg]-NMe2): the Ki was greater than 1000 nM.

The same assay, now with this note: Table 5; HCV NS3/NS4A protease, 30° C., pH 6.5; read-out: Ki* Range.
Take `C=CCCC(NC(=O)[C@@H]1[C@H]2[C@@H](CN1C(=O)[C@@H](NC(=O)NC(C)c1ccccc1)C1Cc3ccccc3C1)C2(C)C)C(=O)C(=O)NCC=C` (stereo partly drawn) [drawing 1925]: the Ki was in the range of 101 to 1000 nM.

As for `C=CCCC(NC(=O)[C@@H]1[C@@H]2[C@H](CN1C(=O)[C@@H](NC(=O)NC13CC4CC(CC(C4)C1)C3)C1CCCCC1)C2(C)C)C(=O)C(=O)NC/C=C/C(=O)NCc1ccccc1` (stereo partly drawn) [drawing 1957], the Ki lay within 101 to 1000 nM.

As to `C=CCNC(=O)C(=O)C(CCC)NC(=O)[C@@H]1[C@H]2[C@@H](CN1C(=O)C(NC(=O)OC1CCCC1C)C1CCCCC1)C2(C)C` (stereo partly drawn) [drawing 2030], the inhibition constant (Ki) lay within 1 to 100 nM.

Regarding `C=CCCC(NC(=O)[C@@H]1[C@@H]2[C@H](CN1C(=O)[C@@H](NC(=O)OC(C)(C)C)C1CCCCC1)C2(C)C)C(=O)C(=O)NCCC1=CCCCC1` (stereo partly drawn) [drawing 2042], the Ki is 101 to 1000 nM.

As for `C=CCC(NC(=O)[C@@H]1[C@@H]2[C@H](CN1C(=O)[C@@H](NC(=O)NC(C)(C)C)C(C)(C)C)C2(C)C)C(=O)C(=O)NCC(=O)NCc1ccccc1` (stereo partly drawn) [drawing 2089], the Ki was 1 to 100 nM.

Still in this assay, the particulars now being: Table 5; HCV NS3/NS4A protease, spectrophotometric assay, 30° C., pH 6.5; read-out: Ki* Range.
For the molecule `CC(C)NC(=O)N[C@H](C(=O)N1C[C@H]2[C@@H]([C@H]1C(=O)NC(CC1CC1)C(=O)C(N)=O)C2(C)C)C(C)(C)C` (stereo partly drawn) [drawing 1365], the Ki fell in the range of 101 to 1000 nM.

With `CCCC(NC(=O)[C@@H]1[C@@H]2[C@H](CN1C(=O)[C@@H](NC(=O)OC(C)(C)C)C(C)(C)C)C2(C)C)C(=O)C(=O)N[C@@H](C)C(=O)NC(C(=O)N(C)C)c1ccccc1` (stereo partly drawn) [drawing 1509] (Boc-[Tle][Pro(3R,4S-CMe2)][X2]A[ξPhg]-NMe2), the Ki is 1 to 100 nM.

For the molecule `CCCCC(NC(=O)[C@@H]1[C@H]2[C@@H](CN1C(=O)[C@@H](NC(=O)OC(C)(C)C)C(C)(C)C)C2(C)C)C(=O)C(=O)NCC(=O)N[C@H](C(=O)N(C)C)c1cccs1` (stereo partly drawn) [drawing 1524] (Boc-[Tle][Pro(3S,4R-CMe2)][X4]G[Gly(2-thienyl)]-NMe2), the Ki fell in the range of 1 to 100 nM.

As to `CC(C)CC(NC(=O)[C@@H]1CC(C)(C)CN1C(=O)[C@@H](NC(=O)OC(C)(C)C)C(C)(C)C)C(=O)C(=O)NCC(=O)N[C@H](C(=O)N(C)C)c1ccccc1` (stereo partly drawn) [drawing 1552] (Boc-[Tle][Pro(4,4-Me2)][ξLeu(ψCOCO)]G[Phg]-NMe2), the Ki is 1 to 100 nM.

For the molecule `CCCC(NC(=O)[C@@H]1CC(C)(C)CN1C(=O)[C@@H](NC(=O)OC(C)(C)C)C(C)(C)C)C(=O)C(=O)NCC(=O)N[C@H](C(=O)N(C)C)c1ccccc1` (stereo partly drawn) [drawing 1554] (Boc-[Tle][Pro(4,4-Me2)][X2]G[Phg]-NMe2), the Ki lay within 1 to 100 nM.

Regarding `CN(C)C(=O)[C@@H](NC(=O)CNC(=O)C(=O)C(CC1CC1)NC(=O)[C@@H]1C2C(CN1C(=O)[C@@H](NC(=O)OC(C)(C)C)C1Cc3ccccc3C1)C2(C)C)c1ccccc1` (stereo partly drawn) [drawing 1614], the Ki fell in the range of 1 to 100 nM.

For `C=CCCC(NC(=O)[C@@H]1[C@H]2[C@@H](CN1C(=O)[C@@H](NC(=O)OC(C)(C)C)C1Cc3ccccc3C1)C2(C)C)C(=O)C(=O)NCC(=O)N[C@H](C(=O)N(C)C)c1ccccc1` (stereo partly drawn) [drawing 1616] (Boc-[Igl][Pro(3S,4R-CMe2)][X6]G[Phg]-NMe2), the Ki was in the range of 1 to 100 nM.

On to `CCCC(NC(=O)[C@@H]1[C@H]2[C@@H](CN1C(=O)C(NC(=O)OC(C)(C)C)C1CCCCC1)C2(Cl)Cl)C(=O)C(=O)NCC(=O)N[C@H](C(=O)N(C)C)c1ccccc1` (stereo partly drawn) [drawing 1619], for which the Ki fell in the range of 1 to 100 nM.

For `C=CCCNC(=O)C(=O)C(CCCC)NC(=O)[C@@H]1[C@@H]2[C@H](CN1C(=O)[C@@H](NC(=O)OC(C)(C)C)C(C)(C)C)C2(C)C` (stereo partly drawn) [drawing 1702], the Ki lay in the range of 101 to 1000 nM.

Regarding `CCCCC(NC(=O)[C@@H]1[C@@H]2[C@H](CN1C(=O)[C@@H](NC(=O)OC(C)(C)C)C(C)(C)C)C2(C)C)C(=O)C(=O)NCCOC` (stereo partly drawn) [drawing 1703], the Ki was greater than 1000 nM.

For the molecule `C=CCNC(=O)C(=O)C(CCC)NC(=O)[C@@H]1CC(C)(C)CN1C(=O)[C@H](NC(=O)OC(C)(C)C)C(C)(C)C` (stereo partly drawn) [drawing 1717], the Ki was greater than 1000 nM.

Turning to `C=CCNC(=O)C(=O)[C@@H](CCC)NC(=O)[C@@H]1C2CCC(C2)N1C(=O)[C@@H](NC(=O)OC(C)(C)C)C1CCCCC1` (stereo partly drawn) [drawing 1739], the Ki was greater than 1000 nM.

Take `C=CCC(NC(=O)[C@@H]1[C@@H]2[C@H](CN1C(=O)[C@@H](NC(=O)OC(C)(C)C)C(C)(C)C)C2(C)C)C(=O)C(=O)NCC(=O)N1CCc2ccccc2C1` (stereo partly drawn) [drawing 1752]: the Ki is greater than 1000 nM.

In the case of `C=CCCC(NC(=O)C1C2CC2CN1C(=O)[C@@H](NC(=O)OC(C)(C)C)C(C)(C)C)C(=O)C(=O)NCC=C` (stereo partly drawn) [drawing 1777], the Ki was greater than 1000 nM.

Turning to `C=CCC(NC(=O)[C@@H]1[C@H]2[C@H](CN1C(=O)[C@@H](NC(=O)OC(C)(C)C)C(C)(C)C)C2(C)C)C(=O)C(=O)NCC(=O)NCc1ccc(Br)cc1` (stereo partly drawn) [drawing 1784], the Ki lay in the range of 101 to 1000 nM.

With `C=CCC(NC(=O)[C@@H]1[C@H]2[C@H](CN1C(=O)[C@@H](NC(=O)OC(C)(C)C)C(C)(C)C)C2(C)C)C(=O)C(=O)NCC(=O)NCc1ccc(Br)cc1` (stereo partly drawn) [drawing 1785], the Ki was greater than 1000 nM.

For `C=CCNC(=O)C(=O)C(CCC)NC(=O)C1C2CC(C3CC32)N1C(=O)C(NC(=O)OC(C)(C)C)C1CCCCC1` (stereo not drawn) [drawing 1810], the Ki is greater than 1000 nM.

`C=CCNC(=O)C(=O)C(CCC)NC(=O)[C@@H]1[C@@H]2[C@H](CN1C(=O)[C@@H](NC(=O)OCC(C)(C)C)C1CCCCC1)C2(C)C` (stereo partly drawn) [drawing 1826]: the Ki is 101 to 1000 nM.

In the case of `C=CCCC(NC(=O)[C@@H]1[C@@H]2[C@H](CN1C(=O)C(NC(=O)OC(C)(C)C)C1C=CCCC1)C2(C)C)C(=O)C(=O)NCC=C` (stereo partly drawn) [drawing 1861], the Ki is greater than 1000 nM.

The assay is the same for the next values; noted with them: Table 6; HCV NS3/NS4A protease, 30° C., pH 6.5; read-out: Ki*.
With `C=CCNC(=O)C(=O)C(CCC)NC(=O)[C@@H]1[C@@H]2[C@H](CN1C(=O)C(NC(=O)O[C@@H]1CCOC1)C1CCCCC1)C2(C)C` (stereo partly drawn) [drawing 2132], the Ki lay in the range of 101 to 1000 nM.

Take `CN(C)C(=O)[C@@H](NC(=O)CNC(=O)C(=O)C(CCC(F)(F)F)NC(=O)[C@@H]1[C@H]2CC(C)(C)O[C@H]2CN1C(=O)[C@@H](NC(=O)OC(C)(C)C)C1CCCCC1)c1ccccc1` (stereo partly drawn) [drawing 2291]: the Ki was 1 to 100 nM.

On to `CC1(OC(=O)N[C@H](C(=O)N2C[C@H]3[C@@H]([C@H]2C(=O)NC(CC2CC2)C(=O)C(N)=O)C3(C)C)C2CCCCC2)CCCCC1` (stereo partly drawn) [drawing 2307], for which the Ki fell in the range of 1 to 100 nM.

For the molecule `CC(C)NC(=O)N[C@H](C(=O)N1C[C@H]2[C@@H]([C@H]1C(=O)NC(CC1CC1)C(=O)C(N)=O)C2(C)C)C(C)(C)C` (stereo partly drawn) [drawing 2312], the Ki fell in the range of 101 to 1000 nM.

As for `CN(C)C(=O)[C@@H](NC(=O)CNC(=O)C(=O)C(CC1CC1)NC(=O)[C@@H]1[C@@H]2[C@H](CN1C(=O)[C@@H](NC(=O)OC(C)(C)C)C1CCC(C(C)(C)C)CC1)C2(C)C)c1ccccc1` (stereo partly drawn) [drawing 2333], the Ki was in the range of 1 to 100 nM.

Take `CN(C)C(=O)[C@@H](NC(=O)CNC(=O)C(=O)C(CC1CCC1)NC(=O)[C@@H]1[C@H]2CC(C)(C)O[C@H]2CN1C(=O)[C@@H](NC(=O)OC(C)(C)C)C1CCCCC1)c1ccccc1` (stereo partly drawn) [drawing 2355]: the Ki was in the range of 1 to 100 nM.

`CN(C)C(=O)[C@@H](NC(=O)CNC(=O)C(=O)C(CCC(F)(F)F)NC(=O)[C@@H]1[C@H]2CC(C)(C)O[C@H]2CN1C(=O)[C@@H](NC(=O)NC(C)(C)C)C1CCCCC1)c1ccccc1` (stereo partly drawn) [drawing 2397]: the Ki is 1 to 100 nM.
